Laboratory results as given in the supplement of paper PMC9151546.
Most values come without repeats; read them as rough.

Columns and labels:
CHO-K1 [1] = assay: micronucleus frequency (% of nucleated events); higher = more micronuclei (genotoxic)
CHO-K1 [2] = assay: hypodiploid nuclei frequency (% of nucleated events); higher = more hypodiploid events (aneugenic)
Description: (§1)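 Flow-cytometric in vitro micronucleus assay (Litron MicroFlow) in CHO-K1 cells in 96-well plates, 19 concentrations (4.5-200 µM, n=1 per concentration). Without S9, cells were exposed for 24 h and sampled at 48 h. With Aroclor 1254-induced rat liver S9, cells were exposed for 3-4 h and sampled at 27-28 h. Read-outs are %MN and %hypodiploid nuclei relative to nucleated events, and relative survival as the nuclei-to-bead ratio versus the 1% DMSO vehicle control (x100).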

CHO-K1 [3] = assay: relative survival (nuclei to bead ratio vs DMSO control) (% of vehicle control); higher = more surviving cells
Description: as §1
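For hypodiploid nuclei frequency (% of nucleated events) in this document: hypodiploid nuclei gated on a flow cytometer with 488 nm excitation after SYTOX Green staining, cultures at 37 °C, positive controls vinblastine without S9 and cyclophosphamide with S9.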
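For micronucleus frequency (% of nucleated events) in this document: cells lysed with nuclei stained by SYTOX Green, then micronucleus-gated events counted against nucleated events by flow cytometry with 488 nm excitation.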
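For relative survival (nuclei to bead ratio vs DMSO control) in this document: Lysed-cell nuclei stained with SYTOX Green and counted against counting beads by flow cytometry at 488 nm excitation, with vinblastine (no S9) and cyclophosphamide (plus S9) as positive controls.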

Cn1cnc([N+](=O)[O-])c1Sc1ncnc2[nH]cnc12 [Azathioprine]
Conditions	hypodiploid nuclei frequency, CHO-K1 [2] [%]	micronucleus frequency, CHO-K1 [1] [%]	relative survival, CHO-K1 [3]
concentration: 4.48 (µM), S9 metabolic activation: with S9, exposure time: 3-4 hours	0.36	1.16	101
concentration: 4.48 (µM), S9 metabolic activation: without S9, exposure time: 24 hours	1.4	1.68	132
concentration: 5.6 (µM), S9 metabolic activation: with S9, exposure time: 3-4 hours	0.26	0.96	113
concentration: 5.6 (µM), S9 metabolic activation: without S9, exposure time: 24 hours	0.98	1.56	98.7
concentration: 7 (µM), S9 metabolic activation: with S9, exposure time: 3-4 hours	0.3	1.32	96.3
concentration: 7 (µM), S9 metabolic activation: without S9, exposure time: 24 hours	1.34	1.6	99.4
concentration: 8.75 (µM), S9 metabolic activation: with S9, exposure time: 3-4 hours	0.36	1.48	104
concentration: 8.75 (µM), S9 metabolic activation: without S9, exposure time: 24 hours	1.08	1.3	109
concentration: 10.9 (µM), S9 metabolic activation: with S9, exposure time: 3-4 hours	0.32	1.16	100
concentration: 10.9 (µM), S9 metabolic activation: without S9, exposure time: 24 hours	1.14	1.78	105
concentration: 13.7 (µM), S9 metabolic activation: with S9, exposure time: 3-4 hours	0.5	1.54	77.8
concentration: 13.7 (µM), S9 metabolic activation: without S9, exposure time: 24 hours	0.66	1.98	117
concentration: 17.1 (µM), S9 metabolic activation: with S9, exposure time: 3-4 hours	0.28	2.22	85.1
concentration: 17.1 (µM), S9 metabolic activation: without S9, exposure time: 24 hours	0.86	1.9	112
concentration: 21.4 (µM), S9 metabolic activation: with S9, exposure time: 3-4 hours	0.4	2.06	95.2
concentration: 21.4 (µM), S9 metabolic activation: without S9, exposure time: 24 hours	1.14	2.06	96.3
concentration: 26.7 (µM), S9 metabolic activation: with S9, exposure time: 3-4 hours	0.38	1.62	110
concentration: 26.7 (µM), S9 metabolic activation: without S9, exposure time: 24 hours	0.98	1.96	94.6
concentration: 33.4 (µM), S9 metabolic activation: with S9, exposure time: 3-4 hours	0.32	1.2	119
concentration: 33.4 (µM), S9 metabolic activation: without S9, exposure time: 24 hours	1.42	2.02	98.7
concentration: 41.7 (µM), S9 metabolic activation: with S9, exposure time: 3-4 hours	0.46	1.12	99
concentration: 41.7 (µM), S9 metabolic activation: without S9, exposure time: 24 hours	1.34	1.92	121
concentration: 52.2 (µM), S9 metabolic activation: with S9, exposure time: 3-4 hours	0.36	1.3	107
concentration: 52.2 (µM), S9 metabolic activation: without S9, exposure time: 24 hours	1.7	1.86	93.5
concentration: 65.2 (µM), S9 metabolic activation: with S9, exposure time: 3-4 hours	0.38	1.28	88.8
concentration: 65.2 (µM), S9 metabolic activation: without S9, exposure time: 24 hours	1.66	1.88	98.7
concentration: 81.5 (µM), S9 metabolic activation: with S9, exposure time: 3-4 hours	0.28	1.42	82.7
concentration: 81.5 (µM), S9 metabolic activation: without S9, exposure time: 24 hours	1.58	1.98	98.7
concentration: 102 (µM), S9 metabolic activation: with S9, exposure time: 3-4 hours	0.32	1.86	71.1
concentration: 102 (µM), S9 metabolic activation: without S9, exposure time: 24 hours	1.76	2.56	90.2
concentration: 127 (µM), S9 metabolic activation: with S9, exposure time: 3-4 hours	0.49	1.61	79.4
concentration: 127 (µM), S9 metabolic activation: without S9, exposure time: 24 hours	1.76	1.88	78.1
concentration: 159 (µM), S9 metabolic activation: with S9, exposure time: 3-4 hours	0.63	1.73	79.5
concentration: 159 (µM), S9 metabolic activation: without S9, exposure time: 24 hours	1.98	2.78	78.1
concentration: 199 (µM), S9 metabolic activation: with S9, exposure time: 3-4 hours	0.57	2.58	68.2
concentration: 199 (µM), S9 metabolic activation: without S9, exposure time: 24 hours	2.58	2.54	65.4

c1ccc2cc3c(ccc4ccccc43)cc2c1 [Benz(a)anthracene]
Conditions	hypodiploid nuclei frequency, CHO-K1 [2] [%]	micronucleus frequency, CHO-K1 [1] [%]	relative survival, CHO-K1 [3]
concentration: 4.5 (µM), S9 metabolic activation: with S9, exposure time: 3-4 hours	0.18	1.62	130
concentration: 4.5 (µM), S9 metabolic activation: without S9, exposure time: 24 hours	0.96	3.18	104
concentration: 5.63 (µM), S9 metabolic activation: with S9, exposure time: 3-4 hours	0.22	1.36	117
concentration: 5.63 (µM), S9 metabolic activation: without S9, exposure time: 24 hours	1.08	2.46	87.8
concentration: 7.04 (µM), S9 metabolic activation: with S9, exposure time: 3-4 hours	0.26	1.68	113
concentration: 7.04 (µM), S9 metabolic activation: without S9, exposure time: 24 hours	1.06	1.92	89.2
concentration: 8.8 (µM), S9 metabolic activation: with S9, exposure time: 3-4 hours	0.34	1.78	114
concentration: 8.8 (µM), S9 metabolic activation: without S9, exposure time: 24 hours	1.32	1.7	112
concentration: 11 (µM), S9 metabolic activation: with S9, exposure time: 3-4 hours	0.14	1.76	113
concentration: 11 (µM), S9 metabolic activation: without S9, exposure time: 24 hours	0.92	2.1	107
concentration: 13.7 (µM), S9 metabolic activation: with S9, exposure time: 3-4 hours	0.3	2.66	103
concentration: 13.7 (µM), S9 metabolic activation: without S9, exposure time: 24 hours	1.1	1.86	121
concentration: 17.2 (µM), S9 metabolic activation: with S9, exposure time: 3-4 hours	0.4	3.06	86
concentration: 17.2 (µM), S9 metabolic activation: without S9, exposure time: 24 hours	1.18	2.42	114
concentration: 21.5 (µM), S9 metabolic activation: with S9, exposure time: 3-4 hours	0.38	3.96	55.6
concentration: 21.5 (µM), S9 metabolic activation: without S9, exposure time: 24 hours	1.38	1.78	110
concentration: 26.8 (µM), S9 metabolic activation: with S9, exposure time: 3-4 hours	0.5	4.22	64.6
concentration: 26.8 (µM), S9 metabolic activation: without S9, exposure time: 24 hours	1.56	2.6	72.1
concentration: 33.6 (µM), S9 metabolic activation: with S9, exposure time: 3-4 hours	0.43	3.83	46.6
concentration: 33.6 (µM), S9 metabolic activation: without S9, exposure time: 24 hours	1.2	2.84	76.5
concentration: 41.9 (µM), S9 metabolic activation: with S9, exposure time: 3-4 hours	–	–	39.4
concentration: 41.9 (µM), S9 metabolic activation: without S9, exposure time: 24 hours	1.92	2.24	80.3
concentration: 52.4 (µM), S9 metabolic activation: with S9, exposure time: 3-4 hours	–	–	36.8
concentration: 52.4 (µM), S9 metabolic activation: without S9, exposure time: 24 hours	1.84	3.08	80.6
concentration: 65.5 (µM), S9 metabolic activation: with S9, exposure time: 3-4 hours	0.51	3.23	45.2
concentration: 65.5 (µM), S9 metabolic activation: without S9, exposure time: 24 hours	1.46	3.26	63.7
concentration: 81.9 (µM), S9 metabolic activation: with S9, exposure time: 3-4 hours	0.51	3.58	45.5
concentration: 81.9 (µM), S9 metabolic activation: without S9, exposure time: 24 hours	1.6	2.86	69
concentration: 102 (µM), S9 metabolic activation: with S9, exposure time: 3-4 hours	0.35	2.49	48.3
concentration: 102 (µM), S9 metabolic activation: without S9, exposure time: 24 hours	2.04	2.7	62.3
concentration: 128 (µM), S9 metabolic activation: with S9, exposure time: 3-4 hours	–	–	39.4
concentration: 128 (µM), S9 metabolic activation: without S9, exposure time: 24 hours	2.1	3.46	52.2
concentration: 160 (µM), S9 metabolic activation: with S9, exposure time: 3-4 hours	0.77	3.41	45.5
concentration: 160 (µM), S9 metabolic activation: without S9, exposure time: 24 hours	2.98	3	44.9
concentration: 200 (µM), S9 metabolic activation: with S9, exposure time: 3-4 hours	–	–	37.8
concentration: 200 (µM), S9 metabolic activation: without S9, exposure time: 24 hours	–	–	37.8

ClC(Cl)c1ccccc1 [Benzal chloride]
Conditions	hypodiploid nuclei frequency, CHO-K1 [2] [%]	micronucleus frequency, CHO-K1 [1] [%]	relative survival, CHO-K1 [3]
concentration: 4.5 (µM), S9 metabolic activation: with S9, exposure time: 3-4 hours	0.26	1.1	100
concentration: 4.5 (µM), S9 metabolic activation: without S9, exposure time: 24 hours	0.86	0.82	89
concentration: 5.63 (µM), S9 metabolic activation: with S9, exposure time: 3-4 hours	0.26	0.84	92.3
concentration: 5.63 (µM), S9 metabolic activation: without S9, exposure time: 24 hours	0.7	1.28	98.3
concentration: 7.04 (µM), S9 metabolic activation: with S9, exposure time: 3-4 hours	0.26	1.1	103
concentration: 7.04 (µM), S9 metabolic activation: without S9, exposure time: 24 hours	0.66	1.32	105
concentration: 8.8 (µM), S9 metabolic activation: with S9, exposure time: 3-4 hours	0.24	0.8	108
concentration: 8.8 (µM), S9 metabolic activation: without S9, exposure time: 24 hours	0.7	1.18	87.6
concentration: 11 (µM), S9 metabolic activation: with S9, exposure time: 3-4 hours	0.18	1	91.3
concentration: 11 (µM), S9 metabolic activation: without S9, exposure time: 24 hours	0.7	0.94	85.1
concentration: 13.7 (µM), S9 metabolic activation: with S9, exposure time: 3-4 hours	0.18	0.92	120
concentration: 13.7 (µM), S9 metabolic activation: without S9, exposure time: 24 hours	0.88	1.14	88.7
concentration: 17.2 (µM), S9 metabolic activation: with S9, exposure time: 3-4 hours	0.26	0.82	105
concentration: 17.2 (µM), S9 metabolic activation: without S9, exposure time: 24 hours	0.58	1.22	102
concentration: 21.5 (µM), S9 metabolic activation: with S9, exposure time: 3-4 hours	0.2	0.8	112
concentration: 21.5 (µM), S9 metabolic activation: without S9, exposure time: 24 hours	0.4	1.74	129
concentration: 26.8 (µM), S9 metabolic activation: with S9, exposure time: 3-4 hours	0.34	0.68	103
concentration: 26.8 (µM), S9 metabolic activation: without S9, exposure time: 24 hours	0.78	0.94	121
concentration: 33.6 (µM), S9 metabolic activation: with S9, exposure time: 3-4 hours	0.22	0.68	119
concentration: 33.6 (µM), S9 metabolic activation: without S9, exposure time: 24 hours	1.16	0.98	97.6
concentration: 41.9 (µM), S9 metabolic activation: with S9, exposure time: 3-4 hours	0.24	0.8	108
concentration: 41.9 (µM), S9 metabolic activation: without S9, exposure time: 24 hours	0.72	1.22	85.1
concentration: 52.4 (µM), S9 metabolic activation: with S9, exposure time: 3-4 hours	0.2	0.82	108
concentration: 52.4 (µM), S9 metabolic activation: without S9, exposure time: 24 hours	1.06	1.9	95.5
concentration: 65.5 (µM), S9 metabolic activation: with S9, exposure time: 3-4 hours	0.14	0.74	112
concentration: 65.5 (µM), S9 metabolic activation: without S9, exposure time: 24 hours	0.84	0.9	103
concentration: 81.9 (µM), S9 metabolic activation: with S9, exposure time: 3-4 hours	0.14	1	98.2
concentration: 81.9 (µM), S9 metabolic activation: without S9, exposure time: 24 hours	1.08	1.22	98.6
concentration: 102 (µM), S9 metabolic activation: with S9, exposure time: 3-4 hours	0.2	0.62	93.5
concentration: 102 (µM), S9 metabolic activation: without S9, exposure time: 24 hours	1.08	1.28	94.5
concentration: 128 (µM), S9 metabolic activation: with S9, exposure time: 3-4 hours	0.2	1.04	125
concentration: 128 (µM), S9 metabolic activation: without S9, exposure time: 24 hours	1.12	1.48	96.5
concentration: 160 (µM), S9 metabolic activation: with S9, exposure time: 3-4 hours	0.26	1	96.5
concentration: 160 (µM), S9 metabolic activation: without S9, exposure time: 24 hours	1.3	1.6	84.3
concentration: 200 (µM), S9 metabolic activation: with S9, exposure time: 3-4 hours	0.2	0.96	77.5
concentration: 200 (µM), S9 metabolic activation: without S9, exposure time: 24 hours	1.14	2.58	88.7
